From PubChem BioAssay AID493208 (National Center for Advancing Translational Sciences (NCATS), 2011)
In all, about 44,000 compounds went through this assay and about 340 (0.77%) were called active. Roughly 5% stayed inconclusive and do not appear here. Calls come from the whole dose curve; as a rule, active = well fitted inhibition curve with a large enough effect; inconclusive = small, poorly fitted or top-dose-only effect; inactive = flat fitted curve, though single readings scatter. Some of the results follow.

Experiment: Acumen qHTS Assay for Inhibitors of the mTORC1 Signaling Pathway in MEF (Tsc2-/-, p53-/-) Cells: Sytravon;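 note: plate controls were DMSO for no effect and rapamycin for full effect; nearly all actives have a fitted effect of over 50% in size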
Conditions: phospho-rpS6 immunofluorescence/PI, 24 h; series mostly up to 38.3 µM; activity change, negative = inhibition: at the top concentration
Summary of the method: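 Readout is phospho-S6 Alexa 488 signal normalized to PI per well, reported as % active cells with thresholds set from rapamycin (7.5 nM) and DMSO controls. Cells: Tsc2-/-, p53-/- MEFs, 24 hrs compound at 37 C; PI cell number serves as viability.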

Activity change, negative = inhibition, inactive:
COc1ccc(C)cc1NC(=O)c1oc2ccc(S(=O)(=O)N3CCOCC3)cc2c1C -2.54%
Cc1nc2nc(C)c(CCC(=O)NCc3cccc(Cl)c3)c(C)n2n1 -10.2%
O=C(Cn1c(=O)n(Cc2ccco2)c(=O)c2sc3ccccc3c21)Nc1ccccc1C(F)(F)F 1.6%
CCOc1ccccc1NC(=O)c1ccc(C(=O)Nc2ccccc2OCC)cc1 2.06%
Cc1ccc(-n2nc(C)c3c(C)c(CCC(=O)NCc4ccccc4Cl)c(C)nc32)cc1 -5.98%
CC(=O)NCCNC(=O)c1ccc2c(=O)n(CCc3ccccc3)c(=O)[nH]c2c1 5.17%
COc1ccc(C2=C(C(C)=O)Sc3nnc(-c4ccccc4)n3N2C(C)=O)cc1 -0.674%
Fc1ccc(Cc2cn3cc(-c4ccc(F)cc4)nc3s2)cc1 -11.3%
COc1cc(NC(=O)c2cc3cc4cc(OC)ccc4nc3o2)cc(OC)c1 -0.534%
CCOc1cc(C2NC(=O)c3c(sc4c3CCN(C)C4)N2)ccc1OC(=O)c1ccc(F)cc1 (stereo not given) 2.55%
COc1cc(C2CC(=O)N(CC(=O)Nc3ccccc3F)c3ccccc3S2)cc(OC)c1OC (stereo not given) -2.44%
CCC(C(=O)NCCc1ccc(SC)cc1)n1nc(C)c2c(C)n(-c3ccc(C)cc3)nc2c1=O (stereo not given) -7.51%
Cc1ccc(CCNC(=O)c2ccc(CSc3nc4ccncc4n3Cc3ccc(F)cc3)cc2)cc1 0.0387%
Cc1ccc(-n2nc(CO)c(C(=O)NC(C)c3ccccc3)n2)cc1C (stereo not given) -5.36%
COC(=O)c1sc2ccccc2c1S(=O)(=O)N1CCN(c2ccc(C(C)=O)cc2)CC1 -16.1%
O=C(Nc1ccc(F)cc1F)c1cc(-c2ccc3c(c2)OCO3)on1 -10.3%
COC(=O)c1ccccc1NC(=O)CCc1c(C)nc2cc(-c3ccc(Cl)cc3)nn2c1C -6.4%
CC(=O)c1cc(-c2ccc(F)cc2)n(CCC(=O)NC2CCCCC2)c1C -0.818%
Cc1cccc(OCC(=O)Nc2cccc(-c3nc4ccccc4s3)c2)c1 -4.64%
Cc1ccc(Cl)cc1N1CCN(C(=O)c2cn(C)c3ccc(S(=O)(=O)N4CCCCC4)cc3c2=O)CC1 1.42%
CC(C)CNc1cc(NC2CCCCC2)c2c3c(onc13)-c1ccccc1C2=O -3.2%
O=S(=O)(Nc1cccc(-c2ccc(N3CCCCC3)nn2)c1)c1ccc(F)cc1F 0.26%
CSc1ccc(CCNC(=O)CCc2c(C)nc3c4cccnc4nn3c2C)cc1 -13%
O=C(CC1N=C2c3ccccc3N=C(SCc3cccc(F)c3)N2C1=O)NC1CCCCC1 (stereo not given) -0.136%
CCSc1nc2sc3c(c2c(=O)n1-c1ccc(C)cc1)CCCC3 6.32%
COc1cccc(CNCc2c(C(=O)O)c(C)n(Cc3ccc(F)cc3Cl)c2C)c1OC 0.835%
O=C(Nc1ccc(F)c(F)c1)c1ccc(F)c(S(=O)(=O)N2CCC3(CC2)OCCO3)c1 -1.39%
CCn1c(=O)n(CC2CCC(C(=O)NC(C)C)CC2)c(=O)c2sccc21 (stereo not given) -9.95%
COc1ccc(NC(=O)CSc2c(C(C)C)cnc3c2c(=O)n(C)c(=O)n3C)c(OC)c1 3.27%
COc1ccc2cc3c(N)nn(C(=O)c4ccc(F)cc4Cl)c3nc2c1 -21.8%
CCOC(=O)c1cc(CC)sc1NC(=O)COc1ccccc1C 0.857%
Cc1cc(NC(=O)CN2CCC(O)CC2)nc2c1c(=O)oc1ccccc12 -11.4%
COc1ccc(C(=O)NCC(c2ccc3c(c2)OCO3)N2CCN(C)CC2)cc1OC (stereo not given) -0.48%
CCOC(=O)c1c(C)[nH]c(C)c1S(=O)(=O)N1CCC(C(=O)Nc2ccc(OC)c(OC)c2)CC1 -2.64%
CCN1CCN(c2ncnc3c2cnn3-c2ccc(F)cc2)CC1 5.81%
COc1ccc(CC(=O)Nc2ccc(-c3nc4ccccc4s3)c(C)c2)cc1 -2.04%
COc1ccc(NC(=O)c2ccc3oc(=O)c(S(=O)(=O)c4ccc(F)cc4)cc3c2)c(OC)c1 -1.06%
CC(C)c1nc2sc3c(N4CCCCC4)ncnc3c2c2c1CCCC2 -7.46%
CCOc1ccc(-n2c(SCC(=O)c3ccccc3)nc3c([nH]c4ccccc43)c2=O)cc1 -16.6%
COC(=O)c1ccc(CSc2nc3ccncc3n2Cc2ccc(F)cc2)cc1 -8.7%
COc1ccc(C(=O)Oc2ccc(C3NC(=O)c4c(sc5c4CCN(C)C5)N3)cc2OC)cc1 (stereo not given) -19%
Cc1ccc(Cl)cc1N1CCN(C(=O)c2cc(S(=O)(=O)N3CCCCC3)cn2C)CC1 0.0245%
COCC(C)Nc1ncnc2c1cnn2-c1cccc(Cl)c1 (stereo not given) -2.01%
CCc1ccc(C(=O)c2cn(CC(=O)Nc3ccc4c(c3)OCCO4)c3ccc(C)cc3c2=O)cc1 6.57%
CCOC(=O)c1c(C)[nH]c(C)c1S(=O)(=O)NCC(=O)N1CCN(c2cc(Cl)ccc2C)CC1 -2.67%
O=C(CCSCc1ccccc1Cl)N1CCN(c2ccc(F)cc2)CC1 10.1%
CC(Oc1ccccc1)C(=O)N1CCN(Cc2cc(=O)n3nc(-c4ccccc4Cl)sc3n2)CC1 (stereo not given) 1.59%
COCc1cc(C)nc2sc3c(c12)NC(c1ccccc1C(=O)O)N(c1ccc(OC)cc1)C3=O (stereo not given) 3.72%
CC(=O)c1ccc(NC(=O)COc2ccccc2-c2nc(-c3ccccc3)no2)cc1 -4.26%
Cc1ccc(C)c(NC(=O)c2nnn(CC(=O)Nc3cccc(C)c3C)c2N)c1 -0.208%
O=c1c2c3c(sc2n(Cc2cc(=O)n4ccccc4n2)c(=O)n1-c1ccccc1)CCC3 -16.4%
O=c1cc(CN2CCN(S(=O)(=O)c3ccccc3)CC2)nc2sc(-c3ccccc3Cl)nn12 5.18%
Cc1ccc(NC(=O)C(Cc2ccccc2)NS(=O)(=O)c2cccs2)cc1Cl (stereo not given) -3.15%
O=C(CS(=O)(=O)c1nc(-c2ccc(Cl)cc2)cn1-c1ccccc1)Nc1ccc(F)cc1F -0.0758%
COc1ccccc1CNC(=O)CN1C(=O)c2cccnc2Oc2ccccc21 -1.02%
Cc1ccc(-c2noc(CSc3nnc(C)n3-c3ccc(C)cc3)n2)cc1 -18%
COc1ccc(NC(=O)CCCc2nnc3n(CCC(C)C)c(=O)c4sccc4n23)cc1Cl 2.41%
COc1ccc(OCCSc2nc3ccccc3n2CC(=O)N2CCOCC2)cc1 -0.806%
COc1ccc(/C=C/c2onc(C)c2S(=O)(=O)N2CCC(C(=O)N3CCCCC3)CC2)cc1 -6.86%
COc1ccc(-c2cc(C(C)=O)c(C)n2CCC(=O)NC2CCCCC2)cc1 -0.0164%
CCOc1ccc(CNC(=O)C2CCN(C(=O)c3sccc3-n3cccc3)CC2)cc1 0.348%
Cc1ccc(-n2c(SCCC(C)C)nc3sc4c(c3c2=O)CC(C)(C)OC4)cc1 -0.156%
CC(C)Oc1ccc(C(=O)N2CC(=O)Nc3ccc(F)cc3C2c2ccc(F)cc2)cc1 (stereo not given) -4.43%
CCOc1ccc(CNC(=O)CN2C(=O)C3CCCCN3c3ccc(C(=O)N4CCCC4)cc32)cc1 (stereo not given) 1.58%
CN(C)c1cccc(C(=O)N2CCC(c3ccncc3)CC2)c1 -8.49%
COc1cc(CNc2ccc3[nH]c(=O)[nH]c3c2)cc(Br)c1OCc1ccc(F)cc1 -20.5%
COc1ccccc1CNC(=O)c1cc2cc(C)ccc2n1C -6.56%
COCCNc1ncnc2onc(-c3ccc(F)cc3)c12 3.64%
O=C(CSc1nc(-c2ccccc2)nc2c1CCCC2)c1ccc(Cl)cc1 -12.2%
O=C(O)CCc1ccc(-c2cccs2)n1CC(=O)Nc1ccccc1C(F)(F)F 2.17%
COc1ccc(Cn2ccc3nc(C)c(C(=O)N4CCN(c5cc(C)ccc5C)CC4)cc3c2=O)cc1 0%
CCc1cccc(C)c1NC(=O)C(CC)n1ncn2c(cc3cc(C)ccc32)c1=O (stereo not given) -10.3%
CCOc1ccc(CNC(=O)c2cnc3sc(N4CCCCCC4)nn3c2=O)cc1OC -19.5%
Cc1ccc(S(=O)(=O)c2nc(S(=O)(=O)c3ccc(C)cc3)c(NC(C)C)s2)cc1 -4.36%
Cc1ccc2c(c1)CC(C)N2S(=O)(=O)c1nnc(NC(=O)C(C)C)s1 (stereo not given) 2.95%
CCCN(C(=O)c1sc2nc3n(c(=O)c2c1C)CCCC3)c1ccccc1C 8.55%
CCCNC(=O)C1CCC(Cn2c(=O)c3sccc3n(CC(=O)Nc3ccccc3C)c2=O)CC1 (stereo not given) -42%
Cc1cccc(NC(=O)C2CCN(S(=O)(=O)c3ccc4c(c3)CCCC(=O)N4)CC2)c1 -2.42%
COc1ccc(-c2cc(C(F)(F)F)nc(SCCC(=O)Nc3cccc(O)c3)n2)cc1 -12.3%
Cc1cc(=O)n(CC(=O)Nc2cccc([N+](=O)[O-])c2)c(-n2nc(C)cc2C)n1 0.178%
CC(NC(=O)c1ccc2nc(Cc3ccccc3)oc2c1)c1ccccc1 (stereo not given) -7.38%
COC(=O)c1c(NC(=O)c2cc3nc(-c4ccc(Br)cc4)cc(C(F)(F)F)n3n2)sc2c1CCCC2 0.124%
CCc1ccc(Nc2cc(C(=O)NCCCN(C)c3ccccc3)c3ccccc3n2)cc1 -3.62%
COc1ccc(OC)c(NC(=O)N2CCC(N3CCN(Cc4ccc(F)cc4)C(=O)C3=O)CC2)c1 6.23%
CCc1noc(-c2ccc(N(C)Cc3ccc(OC)cc3)c([N+](=O)[O-])c2)n1 -16.1%
CCOc1ccc(CCNC(=O)c2sc3ncccc3c2-n2c(C)ccc2C)cc1 -11.4%
COc1ccc(NC(=O)Cn2cc(C(=O)C3CCCCC3)c3ccccc32)cc1 2.42%
Cc1ccc(C)c(Nc2nc3nonc3nc2Nc2cccc(C)c2C)c1 -9.32%
COc1ccc(Cl)cc1NC(=O)N1CCC(CN2CCCCCC2)CC1 -9.64%
Cc1cccc(Cn2cc(C(=O)Nc3ccc(S(N)(=O)=O)cc3)ccc2=O)c1 -1.11%
O=C(C1CCN(S(=O)(=O)Cc2ccccc2)CC1)N1CCN(c2ccccc2F)CC1 2.23%
CCc1ccccc1NC(=O)C(C)n1nc(-c2ccc(C)c(C)c2)ccc1=O (stereo not given) -14.1%
CCCCNC(=O)CN1C(=O)COc2ccc(S(=O)(=O)N3CCCC3)cc21 -3.52%
CCCn1c2ccccc2c2cnn(CC(=O)NCc3cc(OC)ccc3OC)c(=O)c21 -3.27%
CC1=C(C(=O)OCC2CCCCC2)C(c2ccc(Cl)cc2Cl)CC(=O)N1 (stereo not given) -4.23%
